The source of these data is PubChem BioAssay AID488969 (Vanderbilt High Throughput Screening Facility, 2010).

The full ranking holds about 110,000 compounds; the median of “z-score” is about -0.1, and the highest 2% start at about 2. The list shows a part of the results. Active and inactive are the calls of the source.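 The calls were made as follows: active = z-score in the third read window above 3 or below -3; inactive = the rest.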

For the test, the target named is Metabotropic glutamate receptor 8 (Rattus norvegicus) (UniProt P70579). The test can be described thus: rat mGluR8 modulators via GIRK flux, primary screen, cell-based, thallium flux, HTS (AID 488969). Particulars: HEK293 rat mGluR8, GIRK (G protein-gated inwardly rectifying potassium channel) thallium flux, FluoZin2; at 10 µM; stronger effect = higher value; submaximal glutamate (EC20) added with thallium.
Sequence of UniProt P70579 (P70579 whole entry, looked up): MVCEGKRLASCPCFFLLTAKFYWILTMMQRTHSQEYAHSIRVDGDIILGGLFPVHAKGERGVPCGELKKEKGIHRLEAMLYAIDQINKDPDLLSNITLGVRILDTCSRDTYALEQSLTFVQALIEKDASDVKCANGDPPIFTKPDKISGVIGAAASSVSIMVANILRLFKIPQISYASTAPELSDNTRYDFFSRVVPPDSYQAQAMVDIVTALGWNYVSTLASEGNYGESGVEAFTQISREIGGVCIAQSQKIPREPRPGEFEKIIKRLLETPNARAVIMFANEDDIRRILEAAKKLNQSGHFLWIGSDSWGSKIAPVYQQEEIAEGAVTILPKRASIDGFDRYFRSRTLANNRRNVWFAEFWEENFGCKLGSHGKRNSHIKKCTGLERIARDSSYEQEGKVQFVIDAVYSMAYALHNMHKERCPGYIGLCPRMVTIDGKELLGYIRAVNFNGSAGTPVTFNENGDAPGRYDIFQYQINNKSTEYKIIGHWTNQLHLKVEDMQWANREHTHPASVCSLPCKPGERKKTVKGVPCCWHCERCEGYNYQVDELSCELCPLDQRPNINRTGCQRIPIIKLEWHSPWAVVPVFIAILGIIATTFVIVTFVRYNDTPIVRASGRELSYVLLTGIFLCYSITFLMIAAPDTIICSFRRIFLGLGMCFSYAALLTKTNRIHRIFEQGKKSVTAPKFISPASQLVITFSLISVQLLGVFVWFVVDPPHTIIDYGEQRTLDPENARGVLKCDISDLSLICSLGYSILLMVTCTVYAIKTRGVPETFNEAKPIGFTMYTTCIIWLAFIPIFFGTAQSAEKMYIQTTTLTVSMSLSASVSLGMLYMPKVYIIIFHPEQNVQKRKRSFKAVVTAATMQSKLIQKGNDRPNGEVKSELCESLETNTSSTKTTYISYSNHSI
Turning to `Cc1ccc(S(=O)(=O)N2CCN(c3ccc(S(=O)(=O)N4CCOCC4)cn3)CC2)cc1`, the z-score is 0.062.
The figure for `CCC(CO)NC(=O)c1cc2c(s1)CCC2` (stereo unspecified) is -0.373; for `COc1ccc(N(Cc2cc3cc(OC)ccc3[nH]c2=O)C(=O)C2CCCO2)cc1` (stereo unspecified) it is 0.133.
For the compound `Cc1ccc(S(=O)(=O)N2CCN(C3CC(=O)N(CCc4ccccc4)C3=O)CC2)cc1C` (stereo unspecified), the z-score is -0.331.
Next, `CCN(CC)c1ccc(C(=O)OCC(=O)NCC2CCCO2)cc1` (stereo unspecified): 0.39; `O=C(NCc1ccc(Cl)cc1)c1ccc(Cn2cc(C(F)(F)F)ccc2=O)cc1`: -0.381.
`Cc1ccc2c(CC(=O)OCn3nnc4ccccc4c3=O)coc2c1` had a z-score of -0.599.
For the compound `O=C(NCC1CCCO1)C1c2ccccc2C(=O)N1C1CCCCCC1` (stereo unspecified), the z-score is -0.616.
Turning to `Cc1ccc(C(=O)O)cc1NC(=O)C1CCCN1S(=O)(=O)c1cccc2nsnc12` (stereo unspecified), the z-score is -0.022.
The compound `COc1ccccc1NC(=O)Cn1c(=O)oc2ccccc21` gave a z-score of -0.038.
The figure for `CCOC(=O)C(=O)Nc1nnc(C2CCCCC2)s1` is -0.228; for `CCOC(=O)N1CCN(C(=O)C2CCN(c3ncnc4c3sc3cccc(F)c34)CC2)CC1` it is -2.12.
Compound `COc1ccc(-c2nnc(SCC(=O)Oc3ccc(C)cc3)o2)cc1` returned a z-score of -0.915.
`O=C(Nc1cccc(S(=O)(=O)N2CCCCC2)c1)c1ccc2c(c1)OCO2` came in with a z-score of -0.45.
Turning to `Cc1csc2nc3ccccc3c(=O)n12`, the z-score was -0.0425.
As to `FC(F)(F)c1cc(C(F)(F)F)c2ccc(N/N=C/c3cccc(Cl)c3)nc2n1`, the z-score is -0.114.
`COc1ccc(-c2ccc(Nc3ccc(C(=O)N4CCOCC4)cc3)nn2)cc1OC` showed a z-score of -0.327.
The compound `Cc1[nH]c(=O)[nH]c(=O)c1S(=O)(=O)N1CCC(C(=O)N2CCN(Cc3ccccc3)CC2)CC1` displayed a z-score of 0.432.
With `COc1ccc(OC)c(S(=O)(=O)Nc2cccnc2)c1`, the z-score is 0.0762.
`CCN1CCN(C(=O)CCN2C(=O)COc3ccc(C)cc32)CC1` displayed a z-score of 0.156.
In turn, `CC1(C)Cc2ccccc2C(c2cc3ccccc3oc2=O)=N1` came in with a z-score of -0.0977.
The compound `COC(=O)c1ccc(NC(=O)Nc2ccc(F)c(Cl)c2)cc1` came in with a z-score of -0.0366.
On to `CC(NC(=S)Nc1ccccc1OC(F)F)C(C)(C)C` (stereo unspecified), for which the z-score was -0.263.
The figure for `CCC1CCCCN1Cc1ccc(OC)c(C)c1C` (stereo unspecified) is 0.363; for `CCN(CC)c1ccc(C2N(C(=O)N3CCOCC3)CCN2S(=O)(=O)c2ccc(C)cc2)cc1` (stereo unspecified) it is -0.201; for `CC(CC(=O)O)CC(=O)Nc1ccc(S(N)(=O)=O)cc1` (stereo unspecified) it is -0.0167.
Take `Cc1ccc(NC(=S)NCCc2ccc(S(N)(=O)=O)cc2)c(C)c1`: the z-score was -0.0554.
`Cc1ccc(C)c(OCC(=O)N/N=C/c2c(C)nn(-c3ccccc3)c2Cl)c1` returned a z-score of 2.98.
The figure for `COc1ccccc1C(=O)NCCNC(=O)c1ccco1` is 0.00734; for `O=C(Nc1nccs1)c1cc2sccc2n1Cc1ccc(Cl)cc1` it is 0.813.
In turn, `COC(=O)C(Cc1ccccc1)NC(=O)COc1ccc(C(C)(C)C)cc1` (stereo unspecified) displayed a z-score of 0.0425.
`COCCN1C=C(C(=O)OC)C(c2ccc(OC)c(OC)c2)C(C(=O)OC)=C1`: the z-score turned out to be 0.493.
Consider `C/C(N)=C(/C#N)C(=O)COC(=O)C(NS(=O)(=O)c1ccc(Cl)cc1)C(C)O` (stereo unspecified), for which the z-score amounted to 1.18.
For `COCC(C)NC(C(=O)Nc1ccc(C)c(Cl)c1)c1ccccc1` (stereo unspecified), the z-score was -0.19.
As for `CC1(C)CC2CC(C)(CN2C(=O)NC(=O)c2ccccc2)C1` (stereo unspecified), the z-score is -0.259.
In the case of `CCOC(=O)c1ccc(NC(=O)c2ccc(CN3CCOCC3)cc2)cc1`, the z-score came out at 0.0575.
`Fc1ccc(Nc2nc(Oc3ccccc3F)nc(N3CCCC3)n2)cc1` yielded a z-score of -0.254.
As to `CCOC(=O)c1c(C)cc(=O)oc1C`, the z-score amounted to 0.0603.
Next, `CN(CC(=O)Nn1cnnc1)S(=O)(=O)c1ccc(Br)cc1`: active: 4.35.
The compound `CC(=Nc1ccccc1)C1=C(O)CSC1=O` registered a z-score of -0.287.
`CCOc1ccccc1CNc1nc2nc3c(c(=O)n2[nH]1)CCC3` returned a z-score of -1.1.
With `O=C1Nc2cc(Cl)c(Cl)cc2N(O)N1c1cccc(Cl)c1`, the z-score was -0.178.
`O=C(COC(=O)C1CCN(S(=O)(=O)c2cccc3cccnc23)CC1)c1ccc(F)cc1` showed a z-score of -0.302.
Compound `CN(C(=O)CN1CCC(NC(=O)C2CCCCC2)CC1)C1CCCCC1` yielded a z-score of -0.127.
Turning to `CC(=O)C1=C(O)C(=O)N(c2ccc(Br)cn2)C1c1ccccc1F` (stereo unspecified), the z-score was -0.397.
Compound `C=CCOc1ccccc1CN1CCSCC1` registered a z-score of 0.199.
In turn, `O=c1ccc2cc(S(=O)(=O)N3CCN(c4ccccc4)CC3)ccc2o1` registered a z-score of -0.349.
Compound `CCc1nnc(NC2=NCCC2)s1` yielded a z-score of -1.03.
Compound `CC12CC(NC(=O)N1CCc1ccccc1)c1ccccc1O2` (stereo unspecified) displayed a z-score of -0.0397.
`Fc1ccccc1N1CC(c2ccccc2)C(c2cccs2)=N1` (stereo unspecified) displayed a z-score of 0.706.
For `Oc1ccc(/C=N/Nc2ncc(Br)cn2)c(O)c1`, the z-score is -0.00188.
With `c1ccc(Nc2cccc(Nc3ccccc3)n2)cc1`, the z-score worked out at 0.399.
As to `O=C(COc1ccccc1Cl)Nc1nc(-c2cccs2)cs1`, the z-score stood at 0.4.
Next, `O=C(Nc1cccc(S(=O)(=O)Nc2ccc(Cl)cc2)c1)c1ccc2c(c1)OCCO2`: -0.236; `CCCCN(CC)Cc1ccc(CNC(=O)Nc2ccc(OCC)cc2)o1`: -0.0885; `O=C(NC1CCCCC1)C1CCC(CNS(=O)(=O)c2cccc3nsnc23)CC1` (stereo unspecified): -0.329.
In turn, `Nc1nnc(COc2ccc(Br)cc2Br)s1` gave a z-score of 0.953.
In turn, `CCOc1ccc(Cn2nnc(C(=O)NCc3ccc(OC)cc3)c2N)cc1` gave a z-score of -1.72.
`COc1ccc(C(=O)NNC2=NC(C)(C)Cc3cc(C)c(C)cc32)cc1`: the z-score was -0.742.
`Cc1ccccc1NS(=O)(=O)c1ccc(OCCNS(C)(=O)=O)cc1` displayed a z-score of -0.0428.
Next, `CCOC(=O)c1ccccc1NC(=O)CN1C(=O)c2ccccc2S1(=O)=O`: -0.169; `COCCCNC(=O)Cn1nc(-c2ccccc2OC)ccc1=O`: -0.0761; `Cc1ccc(S(=O)(=O)N2CCN(C(=O)N(c3ccccc3)c3ccccc3)CC2)cc1`: -0.559.
`COc1cc2c(cc1NC(=O)COC(=O)C(CCSC)NC(=O)c1ccccc1Cl)oc1ccccc12` (stereo unspecified) gave a z-score of -0.0883.
With `Cc1ccccc1OCc1nnc2n1CC(C)S2` (stereo unspecified), the z-score was -0.449.
For `O=C(NCCN1CCCC1)c1ccc(Cn2c(=S)[nH]c3cc4c(cc3c2=O)OCO4)cc1`, the z-score was -0.289.
`Nn1c(CSc2nc3ccccc3o2)nnc1CSc1nc2ccccc2o1` showed a z-score of -0.0302.
Compound `CCN(CC)c1ccc(NC(=O)CN2CCN(c3ccccc3F)CC2)cc1` came in with a z-score of -0.441.
`CSCCOC(=O)C1=C(C)Nc2ccc(C)cc2S1`: the z-score came out at 0.201.
As for `CSc1nc2n(n1)C(c1cccc(F)c1)C(C(=O)Nc1ccc(C)cc1C)=C(C)N2` (stereo unspecified), the z-score is -0.125.
With `CCCCNC(=S)NNC(=O)c1cc(C)on1`, the z-score is -0.144.
`CCc1c(C(C)O)oc2ccc3c(C)cc(=O)oc3c12` (stereo unspecified) registered a z-score of -0.164.
The figure for `O=C(NCc1ccccc1)c1cccc(COc2ccccc2Cl)c1` is -0.297.
Next, `C=CCNC(=O)c1onc(CSc2cc(C)ccc2C)c1C(=O)O`: 0.136; `Cc1ccc(-c2ccc(CCC(=O)O)n2NC(=O)c2cccs2)cc1`: -0.399; `COc1ccc(C(C(=O)NC2CCCCC2)N(C(=O)CCl)c2ccc(OC)cc2)cc1` (stereo unspecified): -0.0726.
The figure for `Cc1cc(C)n(-c2c(F)c(F)c(COC(=O)c3ccccc3)c(F)c2F)n1` is -0.136.
`COc1ccc(C(CC(=O)O)NC(=O)C2CCCCC2)cc1` (stereo unspecified) came in with a z-score of 1.24.
In the case of `CCCCOc1ccc(NC(=O)CSCC(=O)OCC)cc1`, the z-score was -0.41.
`CC1(C)Cc2cccc(OCC(=O)NC3CC3)c2O1`: the z-score was -0.0613.
As for `COC(=O)Nc1nnc(CCc2ccccc2)s1`, the z-score is 1.27.
Next, `CCOC(=O)c1nnn(CC(=O)N2N=C(c3cccc4ccccc34)CC2c2ccccc2)c1C(=O)OCC` (stereo unspecified): -0.0979; `CC12CC(NC(=O)N1c1cccc(C(=O)Nc3ncn[nH]3)c1)c1ccccc1O2` (stereo unspecified): -0.175.
For the compound `CCN(CC)CP(=O)(c1ccccc1)c1ccccc1`, the z-score is 0.28.
`COc1ccc(-c2cc(C(F)(F)F)nc(N3CCN(C)CC3)n2)cc1` returned a z-score of 0.816.
The figure for `Cc1ccc(S(=O)(=O)NC2CCCc3ccccc32)cc1C` (stereo unspecified) is 0.203; for `CC1CCc2cc(F)ccc2N1C(=O)c1cc2nc(-c3ccco3)cc(C(F)(F)F)n2n1` (stereo unspecified) it is -0.816; for `CCCC1=Nc2cc(C(=O)NCc3ccco3)ccc2Sc2ccccc21` it is -0.285.
`O=C(NCC1CCCO1)c1ccc(NC(=O)C2C3C=CC(C3)C2C(=O)O)cc1` (stereo unspecified): the z-score is -0.188.
Turning to `CC(=O)c1cnc2c(-c3ccc(Cl)cc3)c(C)nn2c1C`, the z-score was -0.623.
Compound `O=C(c1ccc(=O)n(Cc2ccc(Cl)c(Cl)c2)c1)N1CCOCC1` yielded a z-score of -0.194.
`N#Cc1nc(Cc2ccccc2)oc1N1CCN(c2cccc(Cl)c2)CC1` displayed a z-score of 0.287.
The figure for `COc1ccc(C(=O)NC(=S)NCc2ccc(-c3nc4ccccc4o3)cc2)cc1OC` is -0.0448; for `CC(CCc1ccccc1)NC(=O)C1CCN(S(=O)(=O)c2cnc[nH]2)CC1` (stereo unspecified) it is 0.0515; for `Cc1nc(N2CCOCC2)nc2c1CCCC2` it is -0.26.
For `O=C(O)Cn1nc(-c2ccc(F)cc2)oc1=O`, the z-score was -1.05.
Turning to `CCC(C)(C)NC(=O)C(c1ccc(OC)cc1)N(Cc1cccs1)C(=O)CCC(=O)Nc1cc(C)on1` (stereo unspecified), the z-score was -0.717.
The figure for `NC(=O)C1CCN(C(c2ccccc2Cl)c2nnnn2CC2CCCO2)CC1` (stereo unspecified) is 1.21; for `c1csc(-c2nn3c(Cn4cnc5ccccc54)nnc3s2)c1` it is -0.397; for `O=C(C(=O)N1CCc2ccccc2C1)c1cn(CC(=O)N2CCOCC2)c2ccccc12` it is 0.736.
As for `Nc1nc2c(s1)CCc1c-2cnn1-c1ccccc1`, the z-score was -0.981.
As to `CCOC(=O)c1cccc(NC(=O)C2CCCN2S(=O)(=O)c2cccc3cccnc23)c1` (stereo unspecified), the z-score is -0.226.
The compound `CN(C)S(=O)(=O)c1ccc(NC(=O)c2ccc(Br)o2)cc1` yielded a z-score of 0.638.
`CCC(c1nnc(SCC(=O)Nc2nnc(-c3ccccc3)o2)n1Cc1ccccc1)N(C)C` (stereo unspecified): the z-score is -0.274.
Take `O=[N+]([O-])c1ccc(NNC(=S)Nc2ccccc2)cc1`: the z-score came to 0.785.
Compound `COc1cc2nc(NC(=O)c3ccccc3)[nH]c(=O)c2cc1OC` registered a z-score of -0.186.
For the compound `Cc1csc(NC(=O)c2c(O)c3c(n(CC(C)C)c2=O)CCCC3)n1`, the z-score was -0.248.
In the case of `CCCC(=O)N1CCN(c2ccc(NC(=O)C(C)(C)C)cc2)CC1`, the z-score was -0.0238.
`CCCCOc1ncnc2c1[nH]c1ccccc12` returned a z-score of -2.09.
The compound `O=C(c1ccc(=O)n(Cc2ccccc2)n1)N1CCN(C/C=C/c2ccccc2)CC1` registered a z-score of -0.359.
The compound `COc1ccccc1N/C(=N/S(=O)(=O)c1ccc(Cl)cc1)c1ccccc1` returned a z-score of -0.274.
